Several values for one entry are separate records, joined by “and”; a condition that tells them apart may be missing. Identical values can stand only once. Hit rate of the full screen: of about 74,000 compounds, about 1,100 (1.5%) were called active. The inconclusive results got no clear call from the source; some entries with a clear call stand among them for comparison. Calls follow the shape of the dose curve; as a rule, active = well fitted inhibition curve with a large enough effect; inconclusive = small, poorly fitted or top-dose-only effect; inactive = no such curve, though single readings can be large or run the other way. Potencies of inconclusive entries are doubtful fits and often do not repeat. The source holds several records for some structures; these can differ, active in one and inactive in another.
Target: Polyunsaturated fatty acid lipoxygenase ALOX15 (Homo sapiens) (UniProt P16050)
Sequence of UniProt P16050 (P16050 whole entry, looked up): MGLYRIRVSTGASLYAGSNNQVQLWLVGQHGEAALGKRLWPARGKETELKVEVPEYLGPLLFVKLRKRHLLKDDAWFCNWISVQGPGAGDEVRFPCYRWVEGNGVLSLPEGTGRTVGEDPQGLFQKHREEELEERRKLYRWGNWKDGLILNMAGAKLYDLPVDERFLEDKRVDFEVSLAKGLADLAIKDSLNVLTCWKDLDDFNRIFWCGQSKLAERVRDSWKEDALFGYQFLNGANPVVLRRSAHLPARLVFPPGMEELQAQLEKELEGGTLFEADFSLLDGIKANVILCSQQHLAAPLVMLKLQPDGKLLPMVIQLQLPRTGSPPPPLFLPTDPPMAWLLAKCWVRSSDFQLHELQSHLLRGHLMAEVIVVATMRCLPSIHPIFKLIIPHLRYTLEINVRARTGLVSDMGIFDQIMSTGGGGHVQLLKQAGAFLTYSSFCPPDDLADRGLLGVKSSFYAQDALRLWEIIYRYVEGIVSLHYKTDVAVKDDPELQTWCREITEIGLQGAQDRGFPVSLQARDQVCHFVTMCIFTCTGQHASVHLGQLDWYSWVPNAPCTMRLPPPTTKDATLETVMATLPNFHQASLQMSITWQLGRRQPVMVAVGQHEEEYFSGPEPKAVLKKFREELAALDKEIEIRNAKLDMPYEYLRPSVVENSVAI
Assay: qHTS Assay for Inhibitors of 15-hLO (15-human lipoxygenase); also: nearly all actives have a fitted effect of over 55% in size
Conditions: purified 15hLO-1, xylenol orange hydroperoxide absorbance; activity change, negative = inhibition: at 57.1 µM (top of the series) unless noted
Procedure, shortened: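 Inhibition is scored from a chromogenic endpoint. After 15 min enzyme-compound contact, arachidonic acid (50 uM final) reacts 6 min with 40 nM 15hLO-1 at room temperature, then Fe-XO reagent is added for 30 min and absorbance ratio recorded.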
% is scaled to controls: 0 for no effect and ±100 for the full control effect; potency is read from the fitted curve at half-maximal effect; tags tell the direction and shape of the fitted curve.

Compound | Potency | activity change, negative = inhibition
CCc1ccc(CCC(=O)Nc2sc3c(c2C#N)CCCC3)o1 | active: 15.8 µM | 
Cc1ccc(NC(=O)c2cccc(N(C)C)c2)cc1NC(=O)c1ccc(O)cc1 | inconclusive: 15.8 µM [inhibitor, partial curve, poor fit] | 
CCOc1ccc(C(=O)CN2CCN(S(=O)(=O)c3ccc(F)cc3)CC2)cc1 | inconclusive: 12.6 µM [inhibitor, partial curve] | 
O=C(Nc1ccc2c(c1)OCCO2)c1ccco1 |  | inactive: 4.67%
CCCCCn1c(Sc2nc3ccccc3s2)nc2c1c(=O)[nH]c(=O)n2C |  | inactive: 1.1%
CCOC(=O)c1c(OCC)[nH]c2c1cc(O)c1ccccc12 | active: 7.94 µM | 
COc1ccc(NC(=O)N2CCCCC2)cc1 |  | inactive: -1.92%
CC(C)(C)C(=O)Nc1ccccc1C(=O)NCc1ccco1 | inconclusive: 5.01 µM [inhibitor, single point] | 
O=C(CC1N=C2c3ccccc3N=C(SCc3ccc(Cl)cc3)N2C1=O)NCc1ccco1 (stereo not given) | active: 25.1 µM | 
C=CCn1c(N)c(C(=O)OCCC)c2nc3ccccc3nc21 |  | inactive: -1.74%
CCN(CC)C(=S)SSC(=S)N(CC)CC | inconclusive: 501 nM [inhibitor, full curve] and inconclusive: 63.1 nM [inhibitor, full curve] and inconclusive: 398 nM [inhibitor, full curve] | 
CSc1ncnc2c1ncn2CC(=O)[C@H]1CC[C@H]2[C@H]3CCC4=CC(=O)CC[C@@]4(C)[C@@H]3CC[C@@]12C |  | inactive: -16.6% [at 11.4 µM]
Cc1ccc2nc(NC3=NCN(Cc4ccco4)CN3)nc(C)c2c1 | inconclusive: 25.1 µM [inhibitor, single point] | 
C=CCN=c1sc(C(=O)OC)cc(=O)n1CC=C | inconclusive: 39.8 µM [inhibitor, single point] | 
Cc1nc2sc3c(c2c(=O)[nH]1)CCC3 |  | inactive: -2.41%
COc1ccccc1NC(=O)N(Cc1ccco1)Cc1cc2c(C)ccc(C)c2[nH]c1=O | inconclusive: 12.6 µM [inhibitor, partial curve] | 
O=c1c2cc(Cl)ccc2oc2nc3n(c(=O)c12)CCCS3 |  | inactive: -2.52%
COc1ccc(-n2ccnc2SCC(=O)Nc2ccc(OC)cc2OC)cc1 | inconclusive: 3.16 µM [inhibitor, single point] | 
Fc1c(F)c(F)c(CSc2nc3ccccc3[nH]2)c(F)c1F | inconclusive: 2 µM [inhibitor, partial curve] | 
COC(=O)c1c(NC(=O)Cc2cccs2)sc(C)c1C | inconclusive: 0.631 µM [inhibitor, partial curve] | 
CCNC(=O)c1c(N)sc2c1CCCCC2 | inconclusive: 15.8 µM [inhibitor, partial curve] | 
Nc1c2c(nc3ccccc13)CCCC2 | active: 12.6 µM | 
CCCCCn1c(=NC(=O)c2ccco2)c(C(=O)OCC)cc2c(=O)n3ccccc3nc21 |  | inactive: -8.3%
Cc1ccc2oc(-c3ccc(NC(=O)CC(C)C)cc3)nc2c1 |  | inactive: 0.861%
c1csc(CNc2ncnc3ccc(-c4ccc5c(c4)OCO5)cc23)c1 | inconclusive: 31.6 µM [inhibitor, single point] | 

Compound | Potency | activity change, negative = inhibition
CN1CCc2c(sc(/N=C/c3cccs3)c2C(N)=O)C1 | inconclusive: 3.16 µM [inhibitor, single point] | 
CC(=O)c1ccc(OCCCC(=O)OCc2nnc(-c3ccc(Cl)cc3)o2)cc1 | inconclusive: 20 µM [inhibitor, single point] | 
CCN(CCCNC(=O)CCCN1C(=O)COc2ccc(C)cc21)c1cccc(C)c1 | inconclusive: 31.6 µM [inhibitor, single point] | 
CCOC(=O)c1c(C)cc(O)c(C=O)c1O |  | inactive: -4.47%
CC1CCCCN1S(=O)(=O)c1cccc2cccnc12 (stereo not given) | inconclusive: 1.26 µM [inhibitor, full curve, poor fit] | 
O=C(O)/C=C\c1c2ccc(=O)c(O)c-2oc2c(O)c(O)ccc12 | active: 1.58 µM | 
Cn1c(=O)c2c(nc(NC(Cc3ccccc3)C(=O)O)n2Cc2ccccc2)n(C)c1=O (stereo not given) | active: 25.1 µM | 
COc1ccccc1-c1ccc2ncnc(N3CCNCC3)c2c1 |  | inactive: 4.21%
C/C(=N\[N+](C)(C)C)c1ccc(C)c(C)c1 |  | inactive: 13.9% [at 11.4 µM]
CCOc1ccc(NC(=O)CN2CCN(CC(=O)c3ccc(OC)c(OC)c3)CC2)cc1 | inconclusive: 0.1 µM [inhibitor, full curve, poor fit] | 
CCN(C(=O)Cc1cccs1)c1nnc(-c2cc(OC)c(OC)c(OC)c2)s1 | inconclusive: 20 µM [inhibitor, single point] | 
O=c1c2ccccc2nc2n1CCCCC2 |  | inactive: 10.1%
CC[C@H](C)C(=O)O[C@H]1C[C@@H](C)C=C2C=C[C@H](C)[C@H](CC[C@@H]3C[C@@H](O)CC(=O)O3)[C@H]21 | inconclusive: 31.6 µM [inhibitor, partial curve] | 
CS(=O)(=O)Nc1cccc(-c2nc(N3CCNCC3)c3ccccc3n2)c1 |  | inactive: -5.8%
Clc1ccc(-c2nnc(-c3cccc4ccccc34)o2)cc1Cl |  | inactive: 8.11% [at 11.4 µM]
Cc1occc1C(=O)Nc1ccc2ccccc2c1 | inconclusive: 25.1 µM [inhibitor, single point] | 
COc1cccc(N2CCN(CC(=O)Nc3nnc(-c4ccccc4)s3)CC2)c1 |  | inactive: -4.63%
Cc1ccc(-c2nc(NC(=O)CSc3nnnn3-c3ccccc3)ns2)cc1 | inconclusive: 7.94 µM [inhibitor, partial curve] | 
N#Cc1c(SCC(N)=O)nc(-c2ccccc2)c2c1CCCC2 |  | inactive: -3.39%
Cc1ccc(C2Nc3ccccc3C(=O)N2Cc2ccco2)cc1 (stereo not given) | inconclusive: 31.6 µM [inhibitor, single point] | 
CCc1nc(SCC(N)=O)c2c(=O)n(C)c(=O)n(C)c2n1 | inconclusive: 39.8 µM [inhibitor, single point] | 
c1ccc(Cc2nnc3sc(-c4ccc5c(c4)OCO5)nn23)cc1 | inconclusive: 39.8 µM [inhibitor, single point] | 
COc1cc(CNc2ccc(C)c(C)c2)cc(OC)c1OC | active: 10 µM | 
CCN(CC)c1cccc(OC2=NS(=O)(=O)c3ccccc32)c1 | inconclusive: 31.6 µM [inhibitor, single point] | 
N#Cc1cc2c(nc1SCc1ccncc1)CCC2 | inconclusive: 3.98 µM [inhibitor, full curve] | 

Compound | Potency | activity change, negative = inhibition
O=C(NCCC1=CCCCC1)c1cnccn1 | inconclusive: 39.8 µM [inhibitor, single point] | 
Nc1nc(N2CCCCC2)nc2ccccc12 | inconclusive: 5.01 µM [inhibitor, partial curve] | 
O=C(CC1Nc2ccccc2NC1=O)c1ccccc1 (stereo not given) | inconclusive: 39.8 µM [inhibitor, single point] | 
CCOC(=O)c1ccc(NS(=O)(=O)c2ccc3[nH]c(=O)[nH]c3c2)cc1 | inconclusive: 31.6 µM [inhibitor, single point] | 
N#CCSc1nnc(Cc2cccc3ccccc23)n1C1CCCCC1 |  | inactive: -3.42%
Cc1nc2c(cc(Oc3ccc(S(=O)(=O)N4CCOCC4)cn3)c3ccsc32)s1 | inconclusive: 3.98 µM [inhibitor, partial curve, poor fit] | 
N#C/C(=C\c1ccc(O)c(O)c1)C(=O)NCCc1ccccc1 | active: 6.31 µM | 
COc1ccc(S(=O)(=O)N(CCCN2CCCC2=O)Cc2cc3c(C)cc(C)cc3[nH]c2=O)cc1 |  | inactive: -8.19%
FC(F)(F)c1ccccc1-c1nc(NC2CC2)c2ccccc2n1 |  | inactive: -4.51%
Nc1c(S(=O)(=O)c2ccccc2)c2nc3ccccc3nc2n1Cc1ccco1 | inconclusive: 15.8 µM [inhibitor, partial curve] | 
COC(=O)c1c(-c2cccnc2)csc1NC(=O)c1cc(C)on1 | inconclusive: 10 µM [inhibitor, partial curve] | 
O=C(O)CCc1nc(-c2ccccc2-n2cccc2)no1 |  | inactive: 6.62% [at 11.4 µM]
CN(C)c1ncc2nc(-c3ccc(F)cc3)c(=O)n(C3CC3)c2n1 | inconclusive: 20 µM [inhibitor, single point] | 
COC(=O)C1=C(C)NC2=C(C(=O)c3ccccc32)C1c1ccc(-c2ccc(C(=O)O)cc2)o1 (stereo not given) | inconclusive: 25.1 µM [inhibitor, single point] | 
CC(C)(C)NC(=O)C(c1ccncc1)N(C(=O)c1csnn1)C1CC1 (stereo not given) |  | inactive: -9.86%
COc1ccc(O[C@H]2C=C[C@@H](c3ccccc3)O[C@H]2COC(=O)CC/C(C)=N\O[C@@H](C)CN2CCCCc3nc(C)c(C)cc32)cc1 |  | inactive: -5.2% [at 11.4 µM]
Cc1cccc(N2CCN(C(=O)c3cn(C)c(=O)c4c3c3ccccc3n4C)CC2)c1C | inconclusive: 12.6 µM [inhibitor, partial curve] | 
CCOC(=O)c1sc2nc(N3CCOCC3)c3c(c2c1N)CCN(C)C3 |  | inactive: -18.1%
N#Cc1nc(-c2ccc(F)cc2)oc1NCc1cccc2c1OCO2 | active: 12.6 µM | 
O=C(NCc1ccco1)c1cc(-c2ccccn2)nc2ccccc12 | inconclusive: 31.6 µM [inhibitor, partial curve] | 
Cc1cc(C(=O)Nc2nc3ccc(S(C)(=O)=O)cc3s2)c(C)o1 |  | inactive: -3.42%
CNc1nnc(-c2ccncc2)s1 | inconclusive: 10 µM [inhibitor, partial curve] | 
COCC(=O)Nc1ccc(Nc2ccccc2)cc1 |  | inactive: -8.43%
Fc1ccccc1CSc1nnc(-c2cnccn2)n1Cc1ccco1 |  | inactive: -0.82%
O=c1c2c([nH]c3ccccc13)C(=C1CCCC1)CC2 | active: 20 µM | 

Source: PubChem BioAssay AID887 (National Center for Advancing Translational Sciences (NCATS), 2007)
